Laboratory results as given in ChEMBL document CHEMBL4888484, “Replenishing the malaria drug discovery pipeline: Screening and hit evaluation of the MMV Hit Generation Library 1 (HGL1) against asexual blood stage Plasmodium falciparum ,using a nano luciferase reporter read-out” (2022).
Out of some 150,000 compounds screened, about 540 (0.36%) showed an effect of 50% or more. The list shows a part of the results.

Test system: Plasmodium falciparum
Assay: Primary screen in NF54 nanoGlo assay, in single point, at 2uM, 72h; a lower Z score goes with more inhibition
Type: functional, Erythrocyte
Details: timepoint 72 hour

Compound	% Inhibition [%]	Z score
O=C(CCc1cscn1)N1CCc2[nH]ncc2C1	-10	1.93
OCCN(CCO)Cc1c[nH]nc1-c1ccc(-c2ccccc2)cc1	11	-1.7
CC(c1ccccc1)C(CNC(=O)CC1CC1)NC(=O)CC1CC1 (stereo not given)	-5	0.61
O=C(c1cnccn1)N(CCN1CCCC1)Cc1ccc(Cl)cc1	-14	1.29
C[C@@H](c1ccc(F)c(F)c1)N(C)c1ccn(C)n1	-5	0.69
COc1ccc(S(=O)(=O)Nc2cc(C#N)ccc2NC2CC2)cc1OC	2	-0.26
Cc1cc(CS(=O)(=O)[C@@H](C)C(=O)NCC(C)C)on1	36	-1.13
COc1cc(F)ccc1S(=O)(=O)N1CCN(Cc2c(-c3ccc(F)cc3)nc3ccc(-c4cccc(C)c4)cn23)CC1	-8	0.94
OCC1CCN([C@H]2CCCN(Cc3ccccc3C(F)(F)F)C2)CC1	-5	0.52
Cc1ccc(-n2cc(CN3CCN(C)[C@H](C(=O)O)C3)cn2)cc1C	-13	1.19
CCOC(=O)C(NC(=O)C(O)c1ccccc1)C(O)c1cccnc1 (stereo not given)	-9	1.08
Cc1ccncc1C(=O)N1CCC2(CC1)CC(=O)N(Cc1c(C)noc1C)C2	-15	2.59
N#Cc1ccccc1-c1ccc(CN2CC(N3CCOCC3)C2)o1	-4	0.6
CCC(C)c1ccc(NC(=O)N2CC(c3ccccc3)C(c3ccc(Cl)cc3)=N2)cc1 (stereo not given)	37	-1.11
COc1ccccc1C1(c2nnc([C@@H]3COc4ccccc4O3)o2)CCOCC1	-2	0.26
CC(C)(C)c1nc(CNC[C@H]2CN(C3CC3)CCO2)cs1	-11	1.59
Cc1nc(C(C)C)ncc1C(=O)N1C[C@@H]2[C@H](C1)[C@H]1CC[C@@H]2O1	-6	0.97
CCS(=O)(=O)Oc1ccc(CN(Cc2ccc(F)cc2)C(=O)Nc2ccccc2)cc1	-18	1.67
COc1ccc(C2Nc3ccc(Cl)cc3[C@H]3OCCC[C@@H]23)cc1 (stereo not given in full)	5	-0.81
CCS(=O)(=O)N1CCN(Cc2ccc3cn[nH]c3c2)CC1	-7	0.66
O[C@H]1CCCN(CCCn2ccnc2-c2cc3ccccc3o2)C1	1	-0.08
O=S1(=O)CCC[C@H](NS(=O)(=O)c2cccc(Cl)c2O)C1	-2	0.27
CC(C)CN(C1CCN(C)CC1)C1CN(C(=O)c2n[nH]c3ccccc23)C1	-5	0.62
CCN(C(=O)c1cc2c(s1)CCC2)[C@H]1CCS(=O)(=O)C1	-14	2.71
CCn1cc(CNC(=O)c2cc(C)nc3onc(-c4cccc(OC)c4)c23)cn1	3	-0.48
CN(C)S(=O)(=O)c1cnn(Cc2cc(O)cc(C(F)(F)F)c2)c1	-8	1.04
CN(C[C@H]1CCCCO1)C(=O)Cn1ncc(N(C)C)cc1=O	-11	2.02
Cn1cc(NC(=O)CCOC2CCOCC2)cn1	-2	0.2

Compound	% Inhibition [%]	Z score
CS(=O)(=O)N1CCC[C@H]1C1CCCCC1	21	-2.41
O=C1NCCN1CCN1CCC(c2nc3cc(Cl)ccc3s2)CC1	-9	0.75
Cc1cccc(CN2C(=O)CC3(CCC3)C2=O)n1	-5	0.87
CCN(C(=O)[C@@H]1CC[C@H](C(=O)O)C1)c1ccc2[nH]ccc2c1	1	-0.25
COc1cccc(-n2nc(C)c(CCC(=O)Nc3cccc(C(=O)NC4CC4)c3)c2C)c1	0	-0.04
Cc1n[nH]c2c1CN(C(=O)c1csc(C(C)C)c1)CC2	-12	1.1
CCOc1ccccc1OCC#CCNC	-6	1.1
CC(C)Cc1cc(C(=O)N[C@H]2CCNC2=O)nc(=O)[nH]1	-8	0.99
N#Cc1cnc(NCCN2CCCCC2)cn1	-7	0.88
Cc1ccccc1-n1nc(C)c2[nH]c(-c3nc(C)c(C)nc3C)nc21	-5	0.61
NCCOc1ncccc1C(F)(F)F	-34	4.04
CN(C)Cc1ccc(C(=O)N2CC[C@@H]3OCc4cccc(c4)Oc4cccc(c4)CCC(=O)N(C)CC(=O)N[C@@H]3C2)o1	8	-1.12
CC(C)(C)CNCc1cnc(N)nc1N	-5	0.58
CCC(C)c1ccc(C(CC)NC(=O)c2cc(C)nc3ncnn23)cc1 (stereo not given)	27	-3.06
CN1CCC(NC(=O)c2ccc(=O)n(C)c2)C1c1ccc(F)c(F)c1 (stereo not given)	-18	1.51
Cc1cc(C(=O)N2CCN(c3nccc4occc34)CC2)on1	10	-1.25
CC1CCN(c2nc3c(c(Oc4ccccc4)n2)CN(C(=O)c2ccc(Cl)c(Cl)c2)CC3)CC1	-14	2.61
O=C(NCc1ccccn1)c1n[nH]c2c1CCCCC2	-5	0.66
Cc1nc(-c2ccccc2NC(=O)C2CCN(S(C)(=O)=O)CC2)cs1	3	-0.38
CCc1nnc(CNC(=O)c2cccnc2O)s1	-9	0.92
CCc1noc(Cn2cnc3c4ccccc4n(CC(=O)Nc4c(C)cccc4C)c3c2=O)n1	6	-0.8
CCCCCOCC(=O)NCc1cc2n(n1)CCC2	-14	2.52
Cn1cccc(NC(=O)NC2CCCCC2OC2CCCC2)c1=O (stereo not given)	-10	0.91
O=C(Nc1ccc2[nH]c(C3CC3)nc2c1)c1cccnc1	-6	0.69
CN(Cc1noc(-c2ccoc2)n1)c1ccccc1F	0	-0.04
CC(C)(C)NC(=O)[C@@H]1CCCCN1CCc1ccncc1	-8	0.77
O=C(NC1C2CCc3ccccc3C21)c1ccc(S(=O)(=O)Nc2ccncc2)cc1 (stereo not given)	-2	0.18
